Laboratory results taken from the supplement of paper PMC10369915.
The other results are listed elsewhere or left out. Cut-off read from the data, not from the text of the source: active = 3.2 or more and inactive = the rest. Only a few entries rise above the background.

B1: MERTK_HUMAN_754 (peptide)
chain: KIYSGDYYRQGRIAK
B2: MK14_HUMAN_182_YA (peptide)
chain: TDDEMTGYVATRWAR
B3: MEMO1_HUMAN_210 (peptide)
chain: DESQGEIYRSIEHLD
B4: MERTK_HUMAN_754_YA (peptide)
chain: KIASGDAYRQGRIAK
B5: MMP1_HUMAN_360 (peptide)
chain: GQNVLHGYPKDIYSS
B6: MERTK_HUMAN_753_YA (peptide)
chain: KKIASGDYARQGRIA
B7: MET_HUMAN_1003 (peptide)
chain: VSNESVDYRATFPED
B8: MERTK_HUMAN_749_YA (peptide)
chain: FGLSKKIYSGDAARQ
B9: MET_HUMAN_1235 (peptide)
chain: DMYDKEYYSVHNKTG
B10: MARE3_HUMAN_124_YA (peptide)
chain: ANADGKDYNPLLARQ
B11: MK15_HUMAN_177_YA (peptide)
chain: EDQAVTEYVATRWAR
B12: MK13_HUMAN_182_YA (peptide)
chain: ADAEMTGYVVTRWAR
B13: MK15_HUMAN_177 (peptide)
chain: EDQAVTEYVATRWYR
B14: MK12_HUMAN_185 (peptide)
chain: ADSEMTGYVVTRWYR
B15: MIC19_HUMAN_49 (peptide)
chain: SGSKSQRYSGAYGAS
B16: MARF1_HUMAN_699 (peptide)
chain: SGVAEPVYKTSQKKE
B17: MIC19_HUMAN_49_YA (peptide)
chain: SGSKSQRYSGAAGAS
B18: ANDR_HUMAN_535_YA (peptide)
chain: MDSASGPYGDMRLET

Each binder was assayed against SHP2 C-SH2 domain E139D (assay: enrichment score (SH2-bound / input frequency) (ratio); bacterial display of known human phosphotyrosine sites (pTyr-Var adds point mutants) read by sequencing; higher = stronger binding; tyrosines were phosphorylated by kinases first). Settings: peptide library: Human pTyr.
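Note: displayed peptides selected on beads carrying the immobilized SH2 domain, with library peptides lacking any tyrosine serving as negative controls.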

Enrichment score, inactive:
B1 1.92
B2 0.795
B3 0.882
B4 1.44
B5 0.912
B6 0.95
B7 0.705
B8 0.73
B9 0.702
B10 0.701
B11 0.914
B12 2.35
B13 0.856
B14 2.06
B15 0.832
B16 0.723
B17 0.795
B18 0.513

The binders below were run against SHP2 C-SH2 domain wild-type in the same assay as above. Settings: peptide library: Human pTyr.

Enrichment score, inactive:
B1 1.45
B2 0.685
B3 0.722
B4 1.46
B5 0.767
B6 0.724
B7 0.621
B8 0.641
B9 0.858
B10 0.641
B11 0.694
B12 1.89
B13 0.859
B14 1.92
B15 0.631
B16 0.855
B17 0.688
B18 0.507

Each binder was assayed against SHP2 N-SH2 domain L43F in the same assay as above. Settings: peptide library: Human pTyr.

Enrichment score, inactive:
B1 1.28
B2 0.733
B3 0.882
B4 1.03
B5 0.878
B6 0.801
B7 0.827
B8 0.952
B9 0.988
B10 0.807
B11 0.687
B12 1.88
B13 0.832
B14 1.9
B15 0.787
B16 0.896
B17 0.717
B18 0.629

Each binder was assayed against SHP2 N-SH2 domain T42A in the same assay as above. Settings: peptide library: Human pTyr.

Enrichment score, inactive:
B1 1.13
B2 0.801
B3 0.749
B4 1.05
B5 0.762
B6 0.888
B7 0.673
B8 1.01
B9 0.858
B10 0.699
B11 0.763
B12 1.55
B13 0.813
B14 1.62
B15 0.666
B16 0.686
B17 0.727
B18 0.466

These binders were tested against SHP2 N-SH2 domain T52S in the same assay as above. Settings: peptide library: Human pTyr.

Enrichment score, inactive:
B1 1.41
B2 0.822
B3 0.854
B4 1.07
B5 0.809
B6 0.974
B7 0.722
B8 0.994
B9 0.867
B10 0.521
B11 0.693
B12 1.85
B13 0.956
B14 1.94
B15 0.855
B16 1.02
B17 0.809
B18 0.481

What follows are binders tested against SHP2 N-SH2 domain wild-type in the same assay as above. Settings: peptide library: Human pTyr.

Enrichment score, inactive:
B1 1.24
B2 0.768
B3 0.896
B4 1.38
B5 0.921
B6 1.25
B7 0.858
B8 0.925
B9 0.785
B10 0.565
B11 0.706
B12 1.92
B13 0.928
B14 2.09
B15 0.64
B16 1
B17 0.822
B18 0.507
